Test results taken from the supplement of paper PMC11417369.
± gives the standard deviation of the averaged measurements. This is one part of the list.

Each sequence was assayed on PfAP2-LT AP2 domain (GST-tagged) (assay: gcPBM binding intensity (ln(normalized median fluorescence intensity)); higher = stronger DNA binding).
Outline: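 The highest Masliner-normalised natural-log median intensity across replicate spots of either probe orientation is reported as binding intensity. GST-tagged P. falciparum DNA-binding domains expressed in E. coli were applied for 1 h to an Agilent 4 × 180k array of primer-extended double-stranded 36-bp intergenic genomic probes plus negative controls, and bound protein was detected with Alexa488 anti-GST antibody and scanned at 488 nm.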

Row | Sequence | gcPBM binding intensity (ln)
1 | GGAATTATAATAAATGGTACACATAAAAAAAAAAAA [XGTACX_site8343] | 8.73 ± 0.61
2 | TACTTTACTAATATATATAGGAGAGTATACATGAAA [CACACA_negctrl_site63] | 8.52 ± 0.49
3 | ATAAAGTAGATATTTTGTACGCAGGTTGTATATATT [XGTACX_site1464] | 8.85 ± 0.42
4 | TAATAAATAGGACACACACACATATATATATATTAT [CACACA_site4891] | 9.73 ± 0.16
5 | CATATATAAATATGTATGCACTTTAACAAAATGTAT | 8.63 ± 0.4
6 | ATTCCACCTTAAAACTGTACTTTCTCAATCTTTTAT [XGTACX_site796] | 8.8 ± 0.52
7 | ATATTTATTTATATGTGTACTTATGTTTATATAAAA [XGTACX_site4250] | 8.65 ± 0.42
8 | GGAATAATAAAATTATGTACATAAGAATCATATACT [XGTACX_site6810] | 8.96 ± 0.57
9 | ATATATACTTATATTTGTACACAAAGGTATCTCTAG [XGTACX_site3805] | 8.73 ± 0.49
10 | AAATAATACCAAATGTGTACTTATTTCACTAATAGA [XGTACX_site7571] | 8.72 ± 0.48
11 | AAGCTTTGGTGTTATGCATGCAATTAAACTATTAGT [TGCATGCA_site277] | 8.79 ± 0.23
12 | AATAATATATAATAATGTACAAAAAAAAAAAAAAAA [XGTACX_site4158] | 8.64 ± 0.49
13 | TTTTATTTTTTAGTAGTACACACTTTTTGTACCTTT [CACACA_site599] | 8.95 ± 0.46
14 | CAAACAAACGGACACACACACACACCCAAAAATGAT [CACACA_site5363] | 10.1 ± 0.18
15 | AAAAAAAAAAATCGCTGTACTTCTAAAGGTGTGTTA [XGTACX_site843] | 8.73 ± 0.49
16 | AGTTTTATATAAGCTTGTACTTAATATTATTAAGTA [XGTACX_site5919] | 8.64 ± 0.37
17 | ACGGACTTAAAATACACACACACCAAAAAAAAAAAA [CACACA_site7304] | 9.59 ± 0.3
18 | TTTGATAAATTATACACACACAATATATATAAAATA [CACACA_site2023] | 9.21 ± 0.31
19 | ATAATTTGATGGTTAACACACATATAGATTATAGAT [CACACA_site7200] | 8.96 ± 0.41

Row | Sequence | gcPBM binding intensity (ln)
20 | TTTTTTTCTTTTTGAGGTACGCATTATTTTATTTGT [XGTACX_site6996] | 8.63 ± 0.67
21 | TGTTATATTTCAAATTGTACTAATCTAATTAATAAA [XGTACX_site604] | 8.1 ± 0.46
22 | TTATTATATATATCTCGTACGTGTATACGCCTACCA [XGTACX_site8375] | 8.89 ± 0.6
23 | AAACAATTACACATATGTATGTATATATATATATAT [TGCATGCA_negctrl_site536] | 9.49 ± 0.014
24 | ACAAAGTTTATAGAACGTACATACTTACACATATTT [XGTACX_site556] | 8.83 ± 0.57
25 | AAAAAAATGAAACACACACACACATATATATATATA [CACACA_site1043] | 10.1 ± 0.085
26 | ATTTAAAAAAGAAAGGTGCATTTCAATAATGTAAAA [GTGCAC_site9585] | 8.49 ± 0.52
27 | TCATCTTTTATATGTTGTACGTATTTTCATTTATAT [XGTACX_site4855] | 9.09 ± 0.52
28 | TTGATATTTTTTTTATGTACACATGTTCATATTTTT [XGTACX_site8095] | 8.9 ± 0.42
29 | AAGTAGTGTTAATACTGTACTTATATTTTTTATTAT [XGTACX_site8264] | 8.64 ± 0.52
30 | TCACATATTATCTTTACACACTATAAATAAGTTTTA [CACACA_site7335] | 8.7 ± 0.4
31 | TATACTTCTTATTAAATGAGTAGTATATATTATATA [TGCATGCA_negctrl_site299] | 8.43 ± 0.4
32 | CTATTTCATAAACACACACACACAAACAAACATATA [CACACA_site8234] | 9.95 ± 0.33
33 | CTAAAATACGAACACACACACACATATAAATAAATA [CACACA_site7872] | 10.2 ± 0.33
34 | AAAGATTGCGATGGTTGTACTTTTCTATATTTTTTT [XGTACX_site3492] | 8.94 ± 0.33
35 | AAGTACAAATTTAATAAAAATGAAACAAATATGTAT [TGCATGCA_negctrl_site94] | 8.79 ± 0.45
36 | TTTTTTAAAAGAAAATAAAAAATAAGCATAATATGA [CACACA_negctrl_site1574] | 8.21 ± 0.56
37 | AAGGGTTATTTGATATGTACTTATATATATATATAA [XGTACX_site1659] | 8.78 ± 0.29
38 | AAGGTGGAAACAATTACACACACACTAATAAAAAAA [CACACA_site9051] | 9.68 ± 0.5

Row | Sequence | gcPBM binding intensity (ln)
39 | TAAAAAAAGGAAAACATACAATTCTATTTTTCAATA [CACACA_negctrl_site474] | 8.24 ± 0.52
40 | AAATTAAAAAAGAATATACACACCAAAACTGTTTGT [CACACA_site958] | 8.84 ± 0.45
41 | TATATAAATAGATACACACATACATACATACATACA [CACACA_site260] | 9.61 ± 0.37
42 | TATAATAATACTTATTGTACGATTAGCTTAATTCGT [XGTACX_site15] | 8.63 ± 0.38
43 | TAATTTTAAATATCTTCACACATTATATTTTTATAT [CACACA_site5411] | 8.74 ± 0.49
44 | ACCATACATACATACACACACACACGCATATTTATA [CACACA_site7386] | 10.1 ± 0.29
45 | ATGGAATTTTTAGAATATGGATAATGTTACTTAAGT [CACACA_negctrl_site494] | 8.54 ± 0.35
46 | AAAAACCATGGGCACACACACATAATATATAATATA [CACACA_site1425] | 9.75 ± 0.47
47 | GTTATATATATATATATATATATATATATTTTTTTT [GTGCAC_negctrl_site597] | 9.43 ± 0.14
48 | TATATCGTTAATTATACACACATAAAATTAAACTTT [CACACA_site1274] | 8.79 ± 0.35
49 | AAGAGAAATATATATTGTACAATAATTTTATTTGGT [XGTACX_site7642] | 8.71 ± 0.4
50 | ATATCCATAATAAAAACATGCAACAGAAAAAAAAAA [TGCATGCA_site497] | 8.88 ± 0.42
51 | TATATATTAATATTTACACACATGCGCACCCATAAA [CACACA_site2410] | 9.28 ± 0.38
52 | TATTTATATTCCTTTACACACTCCATCTTATATCCA [CACACA_site3604] | 8.98 ± 0.54
53 | ACCGTGGGAGGACACACACACACACCCACATATATA [CACACA_site4339] | 9.97 ± 0.4
54 | ATTTTTGTTATTACATGTACCCATAATTATTATTAA [XGTACX_site3558] | 9.01 ± 0.38
55 | AACAATTATTTGTCGACACACGTATATGTTATTTAG [CACACA_site5046] | 9.28 ± 0.41
56 | ACAAAAAAATGAAAAGAAAAAGATATACCCCAATAT [CACACA_negctrl_site509] | 9.26 ± 0.35
